Broadly, the IC50 is the point on the concentration scale where inhibition reaches its midpoint.

For this test, the system named is MLKL phosphorylation, HT29-L23 human colorectal adenocarcinoma cells. Conditions: read-out: pMLKL HCS Cell Assay (IC50).
On to `Cc1cc(C)c(-c2cc(C(F)(F)F)c3c(N)ncnn23)cc1C(=O)N[C@@H]1CN(C(=O)C2CC(F)C2)C[C@@H]1F` (single isomer, unassigned) [Example 535], for which the IC50 was determined as 28 nM.

In the case of `COc1ncc(-c2cc(C(F)(F)F)c3c(N)ncnn23)cc1C(=O)NCC(C)(O)C(OC)c1ccc(F)cc1` (single isomer, unassigned) [Example 1753, 5-(4-amino-5-(trifluoromethyl)pyrrolo[2,1-f][1,2,4]triazin-7-yl)-N-(3-(4-fluorophenyl)-2-hydroxy-3-methoxy-2-methylpropyl)-2-methoxynicotinamide], the IC50 stood at 4.1 nM.

As to `COc1ncc(-c2cc(C(F)(F)F)c3c(N)ncnn23)cc1C(=O)NC1CN(C(C)C(C)O)C[C@@H]1F` (stereo partly drawn) [Example 1411, 5-[4-amino-5-(trifluoromethyl)-pyrrolo[2,1-f][1,2,4]triazin-7-yl]-N-[(3R,4S)-4-fluoro-1-(3-hydroxybutan-2-yl)pyrrolidin-3-yl]-2-methoxypyridine-3-carboxamide], the IC50 came to 167 nM.

Turning to `COc1ncc(-c2cc(CN3CCC(F)(F)CC3)c3c(N)ncnn23)cc1C(=O)NC1CN(S(=O)(=O)C(C)C(F)(F)F)C[C@@H]1F` (stereo partly drawn) [Example 1544, 5-{4-amino-5-[(4,4-difluoropiperidin-1-yl)methyl]pyrrolo[2,1-f][1,2,4]triazin-7-yl}-N-[(3R,4S)-4-fluoro-1-(1,1,1-trifluoropropane-2-sulfonyl)pyrrolidin-3-yl]-2-methoxypyridine-3-carboxamide], the IC50 worked out at 2.3 nM. As to `Cc1cc(F)c(-c2cc(C(F)(F)F)c3c(N)ncnn23)cc1C(=O)N[C@@H]1CN(C(=O)C2CCC(F)(F)C2)C[C@@H]1F` (stereo partly drawn) [Example 860, 5-[4-amino-5-(trifluoromethyl)pyrrolo[2,1-f][1,2,4]triazin-7-yl]-N-[(3R,4S)-1-(3,3-difluorocyclopentanecarbonyl)-4-fluoropyrrolidin-3-yl]-4-fluoro-2-methylbenzamide], the IC50 turned out to be 3.5 nM. For `[2H]C([2H])([2H])Oc1nc(C)c(-c2cc(C(F)(F)F)c3c(N)ncnn23)cc1C(=O)NC1CN(C(=O)C2CCC(F)(F)C2)C[C@@H]1F` (single isomer, unassigned) [Example 516], the IC50 came out at 80 nM. On to `COc1ncc(-c2cc(C(F)(F)F)c3c(N)ncnn23)cc1C(=O)N[C@@H]1CN(C(C)c2ccccc2)C[C@@H]1F` (single isomer, unassigned) [Example 433], for which the IC50 was determined as 3.7 nM. Turning to `CCC(O)(CN1C[C@H](F)[C@H](NC(=O)c2cc(-c3cc(C(F)(F)F)c4c(N)ncnn34)cnc2OC)C1)C(F)(F)F` (stereo partly drawn) [Example 1822, 5-(4-amino-5-(trifluoromethyl)pyrrolo[2,1-f][1,2,4]triazin-7-yl)-N-((3R,4S)-4-fluoro-1-(2-hydroxy-2-(trifluoromethyl)butyl)pyrrolidin-3-yl)-2-methoxynicotinamide], the IC50 is 9.4 nM. In the case of `COc1ncc(-c2cc(C(F)(F)F)c3c(N)ncnn23)cc1C(=O)N[C@@H]1CN(C(C)c2ccncc2F)C[C@@H]1F` (single isomer, unassigned) [Example 454], the IC50 was determined as 4 nM. `COc1ncc(-c2cc(C(F)(F)F)c3c(N)ncnn23)cc1C(=O)N1CCCC(C)(C(O)c2ccc(F)cc2)C1` (stereo not shown) [Example 1738, (5-(4-amino-5-(trifluoromethyl)pyrrolo[2,1-f][1,2,4]triazin-7-yl)-2-methoxypyridin-3-yl)(3-((4-fluorophenyl)(hydroxy)methyl)-3-methylpiperidin-1-yl)methanone]: the IC50 worked out at 63 nM. In the case of `COc1ncc(-c2cc(C(F)(F)F)c3c(N)ncnn23)cc1C(=O)N[C@@H]1CN(C(C)c2ccncc2F)C[C@@H]1F` (single isomer, unassigned) [Example 455] it was 27 nM; in that of `Nc1ncnn2c(-c3cccc(C(=O)N[C@@H]4CN(C(=O)C5CC(F)C5)C[C@@H]4F)c3)cc(CN3CC(F)(F)C3)c12` (stereo partly drawn) [Example 1175, 3-{4-amino-5-[(3,3-difluoroazetidin-1-yl)methyl]pyrrolo[2,1-f][1,2,4]triazin-7-yl}-N-[(3R,4S)-4-fluoro-1-(3-fluorocyclobutanecarbonyl)pyrrolidin-3-yl]benzamide], 1.3 nM; in that of `Nc1ncnn2c(-c3ccc(F)c(C(=O)N[C@@H]4CN(C(=O)C5CC(F)C5)C[C@@H]4F)c3)cc(C(F)(F)F)c12` (stereo partly drawn) [Example 253, 5-[4-amino-5-(trifluoromethyl)pyrrolo[2,1-f][1,2,4]triazin-7-yl]-2-fluoro-N-[(3R,4S)-4-fluoro-1-(3-fluorocyclobutanecarbonyl)pyrrolidin-3-yl]benzamide], 22 nM. In the case of `CCOc1ccc(-c2cc(C(F)(F)F)c3c(N)ncnn23)cc1C(=O)N[C@@H]1CN(C(=O)C2CC(F)C2)C[C@@H]1F` (stereo partly drawn) [Example 1114, 5-[4-amino-5-(trifluoromethyl)pyrrolo[2,1-f][1,2,4]triazin-7-yl]-2-ethoxy-N-[(3R,4S)-4-fluoro-1-(3-fluorocyclobutanecarbonyl)pyrrolidin-3-yl]benzamide] it was 6.4 nM; in that of `CCc1c(F)cc(-c2cc(C(F)(F)F)c3c(N)ncnn23)cc1C(=O)N[C@@H]1CN(C(=O)C2CC(F)C2)C[C@@H]1F` (stereo partly drawn) [Example 656, 5-[4-amino-5-(trifluoromethyl)pyrrolo[2,1-f][1,2,4]triazin-7-yl]-2-ethyl-3-fluoro-N-[(3R,4S)-4-fluoro-1-(3-fluorocyclobutanecarbonyl)pyrrolidin-3-yl]benzamide], 3 nM; in that of `COc1ncc(-c2cc(C(F)(F)F)c3c(N)ncnn23)cc1C(=O)NC1CN(C2CCCC2C(O)C(F)F)C[C@@H]1F` (stereo partly drawn) [Example 1372, 5-[4-amino-5-(trifluoromethyl)-pyrrolo[2,1-f][1,2,4]triazin-7-yl]-N-[(3R,4S)-1-[2-(2,2-difluoro-1-hydroxyethyl)-cyclopentyl]-4-fluoro-pyrrolidin-3-yl]-2-methoxy-pyridine-3-carboxamide], 192 nM. In the case of `COc1ncc(-c2cc(C(F)(F)F)c3c(N)ncnn23)cc1C(=O)NC1CN(C2CCCC2C(O)C(F)(F)F)C[C@@H]1F` (stereo partly drawn) [Example 1376, 5-[4-amino-5-(trifluoromethyl)-pyrrolo[2,1-f][1,2,4]triazin-7-yl]-N-[(3R,4S)-4-fluoro-1-[2-(2,2,2-trifluoro-1-hydroxy-ethyl)cyclopentyl]pyrrolidin-3-yl]-2-methoxypyridine-3-carboxamide] it was 37 nM; in that of `COc1ncc(-c2cc(C(F)(F)F)c3c(N)ncnn23)cc1C(=O)NC1CN(C2CCCC2C(O)C(F)(F)F)C[C@@H]1F` (stereo partly drawn) [Example 1377, 5-[4-amino-5-(trifluoromethyl)-pyrrolo[2,1-f][1,2,4]triazin-7-yl]-N-[(3R,4S)-4-fluoro-1-[2-(2,2,2-trifluoro-1-hydroxy-ethyl)cyclopentyl]pyrrolidin-3-yl]-2-methoxypyridine-3-carboxamide], 375 nM; in that of `Cc1nc(C)c(-c2cc(C(F)(F)F)c3c(N)ncnn23)cc1C(=O)N[C@@H]1CN(C(=O)C2CCC(F)(F)C2)C[C@@H]1F` (single isomer, unassigned) [Example 527], 79 nM. As to `COc1ncc(-c2cc(C(F)(F)F)c3c(N)ncnn23)cc1C(=O)NC1CN(C(C)C(C)O)C[C@@H]1F` (stereo partly drawn) [Example 1413, 5-[4-amino-5-(trifluoromethyl)-pyrrolo[2,1-f][1,2,4]triazin-7-yl]-N-[(3R,4S)-4-fluoro-1-(3-hydroxybutan-2-yl)pyrrolidin-3-yl]-2-methoxypyridine-3-carboxamide], the IC50 was 95 nM.

Turning to `COc1ncc(-c2cc(C(F)(F)F)c3c(N)ncnn23)cc1C(=O)NCCC(O)(c1ccccc1)C(F)(F)F` (single isomer, unassigned) [Example 142, 5-[4-amino-5-(trifluoromethyl)pyrrolo[2,1-f][1,2,4]triazin-7-yl]-2-methoxy-N-(4,4,4-trifluoro-3-hydroxy-3-phenylbutyl)pyridine-3-carboxamide], the IC50 was 70 nM. The figure for `CCOc1ccc(-c2cc(C(F)(F)F)c3c(N)ncnn23)cc1C(=O)N[C@@H]1CN(C(=O)C2CC(F)C2)C[C@@H]1F` (stereo partly drawn) [Example 1115, 5-[4-amino-5-(trifluoromethyl)pyrrolo[2,1-f][1,2,4]triazin-7-yl]-2-ethoxy-N-[(3R,4S)-4-fluoro-1-(3-fluorocyclobutanecarbonyl)pyrrolidin-3-yl]benzamide] is 25 nM; for `COc1ncc(-c2cc(C(F)(F)F)c3c(N)ncnn23)cc1C(=O)N[C@@H]1CN(C(CC(F)(F)F)c2ccccc2)C[C@@H]1F` (single isomer, unassigned) [Example 447] it is 126 nM; for `COc1ncc(-c2cc(C(F)(F)F)c3c(N)ncnn23)cc1C(=O)N[C@@H]1CN(C(C)c2ccc(F)cc2)C[C@@H]1F` (single isomer, unassigned) [Example 463] it is 4.6 nM.

Consider `Nc1ncnn2c(-c3cccc(C(=O)N[C@@H]4CN(C(=O)C5CCC(F)CC5)C[C@@H]4F)c3)cc(C(F)(F)F)c12` (stereo partly drawn) [Example 103, 3-[4-amino-5-(trifluoromethyl)pyrrolo[2,1-f][1,2,4]triazin-7-yl]-N-[(3R,4S)-4-fluoro-1-(4-fluorocyclohexanecarbonyl)pyrrolidin-3-yl]benzamide], for which the IC50 turned out to be 50 nM. In the case of `COc1ncc(-c2cc(C(F)(F)F)c3c(N)ncnn23)cc1C(=O)NC1CN(C2CCCC2(C)O)C[C@@H]1F` (stereo partly drawn) [Example 1408, 5-[4-amino-5-(trifluoromethyl)-pyrrolo[2,1-f][1,2,4]triazin-7-yl]-N-[(3R,4S)-4-fluoro-1-(2-hydroxy-2-methylcyclo-pentyl)-pyrrolidin-3-yl]-2-methoxypyridine-3-carbox-amide], the IC50 is 30 nM. On to `COc1ncc(-c2cc(C(F)(F)F)c3c(N)ncnn23)cc1C(=O)N[C@@H]1CN(C(C)c2cncnc2)C[C@@H]1F` (stereo partly drawn) [Example 1395, 5-[4-amino-5-(trifluoromethyl)-pyrrolo[2,1-f][1,2,4]triazin-7-yl]-N-[(3R,4S)-4-fluoro-1-[1-(pyrimidin-5-yl)ethyl]-pyrrolidin-3-yl]-2-methoxy-pyridine-3-carboxamide], for which the IC50 came out at 10 nM.

Consider `Nc1ncnn2c(-c3cccc(C(=O)N[C@@H]4CN(C(=O)C5CCC(F)CC5)C[C@@H]4F)c3)cc(C(F)(F)F)c12` (stereo partly drawn) [Example 102, 3-[4-amino-5-(trifluoromethyl)pyrrolo[2,1-f][1,2,4]triazin-7-yl]-N-[(3R,4S)-4-fluoro-1-(4-fluorocyclohexanecarbonyl)pyrrolidin-3-yl]benzamide], for which the IC50 is 123 nM.

These data come from patent publication US11618753B2 (priority 2018, dated 2023).
